Test results from publication PMC4336329 (PLoS ONE, 2015).
About 2,200 (0.71%) of roughly 310,000 compounds showed an effect of 50% or more. Effects have a minus sign here. The list shows a part of the results.

The molecules below were run against human ether-à-go-go-related gene (hERG) potassium channel (human, UniProt Q12809) (assay: primary screen, population patch clamp on CHO cells stably expressing hERG).
Chain of human ether-à-go-go-related gene (hERG) potassium channel (Q12809 whole entry, looked up): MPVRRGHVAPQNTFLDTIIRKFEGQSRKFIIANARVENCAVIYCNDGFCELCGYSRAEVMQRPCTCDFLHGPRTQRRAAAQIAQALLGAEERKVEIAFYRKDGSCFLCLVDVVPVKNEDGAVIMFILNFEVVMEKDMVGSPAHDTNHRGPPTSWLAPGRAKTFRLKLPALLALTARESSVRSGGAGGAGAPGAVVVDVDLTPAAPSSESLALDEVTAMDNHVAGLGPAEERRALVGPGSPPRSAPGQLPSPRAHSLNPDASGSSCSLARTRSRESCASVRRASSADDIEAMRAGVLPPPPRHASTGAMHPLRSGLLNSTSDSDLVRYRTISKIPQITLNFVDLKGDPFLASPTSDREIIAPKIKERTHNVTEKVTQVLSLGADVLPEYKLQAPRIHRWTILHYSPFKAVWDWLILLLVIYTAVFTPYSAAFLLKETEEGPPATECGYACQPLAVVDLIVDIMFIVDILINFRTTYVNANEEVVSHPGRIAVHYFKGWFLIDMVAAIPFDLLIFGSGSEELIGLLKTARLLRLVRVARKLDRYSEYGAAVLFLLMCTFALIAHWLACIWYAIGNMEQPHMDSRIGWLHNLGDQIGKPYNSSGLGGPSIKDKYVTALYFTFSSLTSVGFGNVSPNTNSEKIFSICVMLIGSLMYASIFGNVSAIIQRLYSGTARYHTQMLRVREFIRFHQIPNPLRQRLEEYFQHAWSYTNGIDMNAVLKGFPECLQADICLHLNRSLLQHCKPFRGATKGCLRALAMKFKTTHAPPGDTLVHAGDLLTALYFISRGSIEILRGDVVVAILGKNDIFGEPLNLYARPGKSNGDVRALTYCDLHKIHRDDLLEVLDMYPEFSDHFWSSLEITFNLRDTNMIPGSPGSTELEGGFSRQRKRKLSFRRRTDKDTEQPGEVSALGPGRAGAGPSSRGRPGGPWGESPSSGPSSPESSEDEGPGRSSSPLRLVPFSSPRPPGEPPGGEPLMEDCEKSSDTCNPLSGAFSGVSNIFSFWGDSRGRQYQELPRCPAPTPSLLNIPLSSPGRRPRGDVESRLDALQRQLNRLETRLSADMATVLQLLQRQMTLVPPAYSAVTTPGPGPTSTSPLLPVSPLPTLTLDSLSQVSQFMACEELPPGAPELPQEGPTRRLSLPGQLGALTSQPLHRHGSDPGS

Row | Structure (SMILES) | hERG current change (%, negative = inhibition) at 1uM
1 | COc1ccccc1N1C(=O)c2ccc(C(=O)Nc3cccc(C(C)=O)c3)cc2C1=O | 7.08%
2 | O=C(Oc1cccc(O)c1)C1CCCCC1 | 9.61%
3 | NCC(c1ccc(Cl)cc1Cl)c1c[nH]c2ccccc12 (stereo not drawn) | 17.2%
4 | Cc1ccc(SCC(=O)Nc2oc(C)c3c(C)n[nH]c(=O)c23)cc1C | 1.81%
5 | Cc1ccc(CNC(=O)C2CCCN(S(=O)(=O)c3c(C)[nH]c(=O)[nH]c3=O)C2)cc1 (stereo not drawn) | 5.72%
6 | CCN(CC)C(=O)c1ccc2nc3ccccc3nc2c1 | 8.4%
7 | COc1cc(C(=O)NNC(=O)C2CC=CCC2C(=O)O)cc(OC)c1OC (stereo not drawn) | 3.26%
8 | O=C(COc1ccc(S(=O)(=O)NC2CCCCC2)cc1)NCc1cccnc1 | 8.73%
9 | Cc1cc2c(c(=O)n1C)C(Cc1ccccc1)C(C#N)=C(N)O2 (stereo not drawn) | 9.8%
10 | Cc1ccc(/C=C2\SC(N3CCCC3)=NC2=O)cc1 | 6.27%
11 | COc1ccccc1C(=O)Nc1ccccc1SC(=O)c1ccccc1OC | 18.2%
12 | Cc1ccc(C(=O)N2CCN(C(=O)N3CCOCC3)CC2)cc1 | -3.75%
13 | Cc1ccc(C)c(-n2[nH]c3c4c(ccc3c2=O)C(=O)c2ccccc2C4=O)c1 | 11.4%
14 | O=C(Cc1ccccc1)Nc1ccc(C(=O)NCC2COc3ccccc3O2)cc1 (stereo not drawn) | 7.24%
15 | CC(C)Oc1cc(C(=O)NC2CCCCC2)c2ccccc2n1 | 7.21%
16 | Fc1cccc(-n2cc(-c3ccccc3)c3c(=S)nc[nH]c32)c1 | 19.2%
17 | CCn1c(CCNC(=O)c2ccc(C)cc2)nnc1SCc1ccc(Cl)c(Cl)c1 | -4.81%
18 | COCCSc1nnc(NS(=O)(=O)c2ccccc2)s1 | 15.9%
19 | Cc1ccc(C(=O)Nc2ncc3c(Cl)cccc3n2)cc1 | 17.4%
20 | Cc1cccc(-c2cc(C(=O)Nc3cccnc3)c3ccccc3n2)c1 | 14.5%
21 | O=C(NC(=S)N1CCN(C2CCCCC2)CC1)c1ccccc1 | -1.19%
22 | CC(=O)Nc1ccc(NC(=O)c2cccc3c2-c2ccccc2C3=O)cc1 | 9.53%
23 | O=c1[nH]c(-c2ccccc2)cnc1-c1ccccc1 | 12.7%

Row | Structure (SMILES) | hERG current change (%, negative = inhibition) at 1uM
24 | O=C1NC(=O)/C(=C/c2ccc(O)cc2)S1 | 13%
25 | N#Cc1ccc(S(=O)(=O)N2CCCN(c3ccc(C(F)(F)F)cn3)CC2)cc1 | -36.4%
26 | C=CCc1cccc(C=Nc2c[nH]c(=O)[nH]c2=O)c1O | 12.2%
27 | CCNC(=O)NC(=O)C(C)OC(=O)C1CCN(S(=O)(=O)c2ccccc2F)CC1 (stereo not drawn) | 10%
28 | COc1cccc(N2C(=O)CC(Nc3ccc(N4CCOCC4)cc3)C2=O)c1 (stereo not drawn) | 13.3%
29 | O=c1cc(C(F)(F)F)nc(SCc2cccc3ccccc23)[nH]1 | 5.58%
30 | COc1ccc(OC)c(-c2cc(C(=O)N3CCc4ccccc4C3)no2)c1 | 5.48%
31 | CCS(=O)(=O)c1ccc2oc(Nc3ccc(OC)c(OC)c3)nc2c1 | 20.3%
32 | O=C(NCc1ccccn1)c1c(Cl)cccc1Cl | 10.2%
33 | Cc1cc(C(=O)NCc2ccc(F)cc2)n(-c2ccccc2)n1 | 3.62%
34 | Cc1ccc2[nH]c3c(N4CCOCC4)ncnc3c2c1 | 10.1%
35 | CC(NCc1ccc(S(N)(=O)=O)cc1)C(=O)N1CCc2ccccc21 (stereo not drawn) | 4.06%
36 | CC(=O)N1CN(C2CCS(=O)(=O)C2)Cc2c1sc1c2CCCC1 (stereo not drawn) | 13.8%
37 | O=C1C=C(c2ccc(Cl)cc2)OC2(CCCC2)O1 | 14.6%
38 | COC(=O)C1=C(c2cccc(OC)c2OC)C[C@@H]2CC[C@H]1N2C(=O)NCC1CC1 | 1.97%
39 | O=C1C=C(NCCN2CCOCC2)CC(c2ccccc2)C1 (stereo not drawn) | 1.92%
40 | Cc1ccc(C(=O)Nc2nnc(CC(=O)N/N=C/c3ccc(O)c(O)c3)s2)cc1 | 12.1%
41 | OCCN1CCN(C(=S)NCCc2ccccc2)CC1 | 17.2%
42 | C/C(=N/O)c1cc(C(C)(C)C)c(O)c(C(C)(C)C)c1 | 9.12%
43 | COc1ccc(S(=O)(=O)c2c(O)c3ccc(C(=O)Nc4ccccc4F)cc3[nH]c2=O)cc1 | 9.37%
44 | COc1ccc(OC)c(S(=O)(=O)N2CCC(C(=O)Nc3cccc(C)c3C)CC2)c1 | 19.1%
45 | Cc1cccc(-c2n[nH]c(S(C)(=O)=O)c2C#N)c1 | 3.02%
46 | CC(=O)c1c(C)[nH]c(C(=O)N2CCN(c3cc(Cl)ccc3C)CC2)c1C | 14.8%

Row | Structure (SMILES) | hERG current change (%, negative = inhibition) at 1uM
47 | O=C(COC(=O)CNC(=O)c1ccc(Cl)cc1Cl)NC(=O)NCc1ccccc1 | 16.1%
48 | CCCCCCOc1ccc(N2C(=O)CC(N3CCN(CCN=CC4=C(O)CC(C)(C)CC4=O)CC3)C2=O)cc1 (stereo not drawn) | 5.84%
49 | COc1ccc(Nc2nc3ccccc3c(=O)[nH]2)cc1 | 6.29%
50 | COc1ccc2c(c1)CC/C2=N\OC(=O)c1cccc(C)c1 | 3.03%
51 | CCOC(=O)c1sc(Nc2ccc(F)cc2)nc1C | 11.4%
52 | CCOC(=O)CC(=O)CSc1nc2c(sc(=S)n2-c2ccc(C)c(C)c2)c(=O)[nH]1 | 11.8%
53 | CCC1CCCCN1CC(=O)c1c(C)[nH]c2ccc(OC)cc12 (stereo not drawn) | -5.25%
54 | C=CCNC(=O)c1cc2cccc(OC)c2oc1=O | 15.6%
55 | C/C(=N\Nc1nc2ccccc2nc1C)c1ccccc1O | 3.65%
56 | CSc1nc(NCc2ccco2)c2ccccc2n1 | 4.95%
57 | O=C(Nc1ccc(S(=O)(=O)Nc2nccs2)cc1)C1=NN(c2ccccc2)C(=O)CC1 | 15%
58 | Cc1c(C(=O)N(C)C(C)c2ccncn2)oc2c(F)cccc12 (stereo not drawn) | 11.5%
59 | COc1ccccc1N1CCN(/N=C/C(Cl)=C/c2ccccc2)CC1 | 11%
60 | Cc1ccc(NC(=S)c2nc3ccccc3s2)cc1 | 7.76%
61 | Cc1ccc2nc(Cl)c(C3CC(c4cccs4)=NN3C(=O)CCC(=O)O)cc2c1 (stereo not drawn) | 19.4%
62 | Cc1ccc(Cl)cc1N(C)C(=O)Cn1ncc2c([nH]c3ccccc32)c1=O | 14.2%
63 | CCOC(=O)c1c(C)c(C(=O)NCC2CCCO2)c(C)n1CC (stereo not drawn) | -11.9%
64 | O=c1ccc(-c2ccccc2)nn1Cc1ccc(Cl)cc1 | 8.24%
65 | CN(c1ccccc1)c1nc(N)c([N+](=O)[O-])c(N2CCCCCC2)n1 | 18.8%
66 | COc1cc(CCC(=O)Nc2nccs2)cc(OC)c1OC | 16.2%
67 | Cc1ccc(C(=O)NCc2ccncc2)cc1S(=O)(=O)N1CCOCC1 | 15.1%
68 | O=C(c1ccncc1)N1N=C(c2ccc(Br)cc2)CC1c1ccccc1O (stereo not drawn) | 7.41%
69 | COC(=O)C1=C(C)Nc2nnnn2C1c1cc(OC)ccc1OC (stereo not drawn) | 12.7%

Row | Structure (SMILES) | hERG current change (%, negative = inhibition) at 1uM
70 | Cc1ccc(C)c(C(=O)Nc2nc3ccccc3[nH]2)c1 | 16.9%
71 | C=CCC1c2cccc(C(=O)OC)c2C(=O)N1c1ccccc1 (stereo not drawn) | 12.3%
72 | CCOC(=O)C1CCN(C(=O)c2cnn3c(C)cc(C)nc23)CC1 | 5.22%
73 | CSc1ccc(C2c3[nH]c4ccccc4c3CCN2C(=O)c2cc(C)n(C)n2)cc1 (stereo not drawn) | 24.8%
74 | CC(C)C(=O)Nc1sc2c(c1C#N)CCCCC2 | 14.6%
75 | CC(C)Cc1cc(C(=O)Nc2c(F)cc(F)cc2Br)no1 | -13.4%
76 | CCCc1cc(=O)oc2c(C)c(OCC(=O)N3C[C@H]4C[C@@H](C3)c3cccc(=O)n3C4)ccc12 | 5.33%
77 | Cc1cc(C)c(S(=O)(=O)N2CCN(CCO)CC2)c(C)c1 | 6.94%
78 | CCc1nn(CC(=O)NCCCN2CCN(C)CC2)c(=O)c2cc3occc3n12 | 11.5%
79 | CCOC(=O)Cn1ccc(O)c(Cc2ccc(Cl)cc2Cl)c1=O | 0.857%
80 | C[C@@H]1C[C@H]2[C@@H]3C[C@H](F)C4=CC(=O)C=C[C@]4(C)[C@@]3(Cl)[C@@H](O)C[C@]2(C)[C@H]1C(=O)COC(=O)C(C)(C)C | 12.6%
81 | COc1ccc(NC(=O)/C(C#N)=C/c2ccc[nH]2)c(OC)c1 | 9.42%
82 | COc1ccc(NC(=O)COc2ccccc2Cc2ccccc2)cn1 | 7.54%
83 | COc1ccc(/C=C2\CCCc3c2nc2ccc(C)cc2c3C(=O)O)cc1O | 17.6%
84 | O=C(O)CCN=C1CCCc2ccccc2N1 | 7.93%
85 | COc1cc(C)nc(-c2csc(C)n2)n1 | 5.76%
86 | COc1ccc(N2CC(C(=O)N3CCC4(CC3)CC(=O)c3ccccc3O4)CC2=O)cc1 (stereo not drawn) | -34.8%
87 | O=S(=O)(Nc1ccc(-c2ccc3nncn3n2)cc1)c1ccc(Cl)s1 | -2.82%
88 | O=C1C2CC=CCC2C(=O)N1c1ccc(NCCc2ccccc2)c([N+](=O)[O-])c1 (stereo not drawn) | 16.4%
89 | Cc1c(C(=O)Nc2ccc(-c3nnc4n3CCCCC4)cc2)oc2ccc(Br)cc12 | 15.1%
90 | OCc1ccnc2c(O)cccc12 | 5.05%
